# Laboratory results: PubChem BioAssay AID1963576 (National Center for Advancing Translational Sciences (NCATS), 2024)
# The campaign covered roughly 46,000 compounds. About 60 (0.1%) were called active. Inconclusive means that the source gave no clear call. Such entries were picked first, then a sample of the others. The call rests on the fitted dose curve; in most records, active means well fitted inhibition curve with a large enough effect; inconclusive means small, poorly fitted or top-dose-only effect; inactive means no such curve, though single readings can be large or run the other way. No potency is given beside an inconclusive call; the fits are too rough.
# Assay: Primary qHTS assay for Inhibitors of ovarian cancer metastasis using an organotypic tumor microenvironment (TME) model. Further: nearly all actives have a fitted effect of over 65% in size.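 On activity change, negative = inhibition: plate controls were DMSO wells for no effect and tomatine positive control wells for full effect.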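 On potency: count of GFP cancer cells still attached after washing and fixation.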
# Settings: SKOV3ip1-GFP adhesion/invasion on 3D omental model, fluorescence; activity change, negative = inhibition: at 45.8 µM (top of the series); series mostly up to 45.8 µM
# Method in brief: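 Adhesion/invasion was scored as fixed GFP-labeled SKOV3ip1 cell counts (488/509 nm), normalized to DMSO and tomatine controls. Cancer cells in serum-free medium, with four compound doses (0.36-46 umol/L), sat 2 hr at RT then 16 hr at 37 C on a 48 hr fibroblast/mesothelial/ECM culture.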
# Potency means the concentration at half of the fitted maximal effect; tags describe the fitted curve by direction and shape.
Structure (SMILES),Potency,"activity change, negative = inhibition"
COc1cccc(NC(=O)CC(C)S(=O)(=O)c2ccc3c(c2)NC(=O)CO3)c1 (stereo not given),"inconclusive [inhibitor, single point]",–
Nc1c(C(=O)Nc2ccc(C(=O)O)cc2)sc2nc3c(cc12)CCCC3,inactive,–
COc1ccccc1NC(=O)C(Cc1ccccc1)NS(=O)(=O)c1ccc2c(c1)c(=O)n(C)c(=O)n2C (stereo not given),"inconclusive [inhibitor, single point]",–
C[N+]1(C)[C@@H]2C[C@@H](OC(=O)C(O)(c3cccs3)c3cccs3)C[C@H]1[C@@H]1O[C@@H]12,inactive,–
Cc1cc(C)c(NC(=O)C2CCN(c3nnc(C)c4c(C)n(-c5ccccc5)nc34)CC2)c(C)c1,"inconclusive [inhibitor, single point]",–
CCCCN(C)S(=O)(=O)c1cc(-c2cc(C)no2)ccc1C,"inconclusive [inhibitor, single point]",–
Cc1ccccc1Nc1c(-c2ccc(N3CCOCC3)cc2)nc2ccc(Cl)cn12,inactive,–
CC1CCCCN1CCCNC(=O)Cn1ncc2c3ccccc3n(Cc3ccccc3F)c2c1=O (stereo not given),"inconclusive [inhibitor, single point]",–
CCOc1ccc(-c2noc(CSc3nnc(Cc4ccccc4)n3-c3cccc(C)c3)n2)cc1,–,inconclusive: -32.5% [inhibitor]
CCC(C)NC(=O)CCc1c(C)nc2cc(-c3ccc(OC)cc3OC)nn2c1C (stereo not given),inactive,–
CCCN(CCC)CCNC(=O)C1CCN(c2nc3ccc(CC)cc3s2)CC1,"inconclusive [inhibitor, partial curve]",–
CC(C)c1nnc(NC(=O)c2nc(S(=O)(=O)Cc3ccccc3)ncc2Cl)s1,"inconclusive [inhibitor, full curve, poor fit]",–
Cc1ccc(-n2c(SCC(=O)N3CCC(C)CC3)nc3c([nH]c4ccccc43)c2=O)cc1,"inconclusive [inhibitor, single point]",–
COc1ccc2c(C)c(CCC(=O)NCc3ccc(OC)c(OC)c3)c(=O)oc2c1,inactive,–
O=C(CCS(=O)(=O)c1nc(-c2cccs2)cc(C(F)(F)F)n1)Nc1cccc(O)c1,"inconclusive [inhibitor, partial curve, poor fit]",–
COc1ccc(NC(=O)c2nc(S(=O)(=O)Cc3ccc(C)cc3)ncc2Cl)cc1,"inconclusive [inhibitor, partial curve, poor fit]",–
NC1(C(=O)N[C@@H](CCO)c2ccc(Cl)cc2)CCN(c2ncnc3[nH]ccc23)CC1,"inconclusive [inhibitor, full curve, poor fit]",–
Cc1ccc(NCc2cccn2-c2nnc(N3CCC(C(=O)NCCC(C)C)CC3)s2)cc1,"inconclusive [inhibitor, partial curve, poor fit]",–
CCCN(CCC)S(=O)(=O)c1ccc(C(=O)Nc2cccc(-c3nc4ccccc4[nH]3)c2)cc1,"inconclusive [inhibitor, full curve, poor fit]",–
COc1ccc(NC(=O)Cn2nnc3sc4c(c3c2=O)CCCC4)cc1,inactive,–

Structure (SMILES),Potency,"activity change, negative = inhibition"
Cc1cc(C)cc(NC(=O)Cn2c(=O)n(Cc3ccco3)c(=O)c3oc4ccccc4c32)c1,"inconclusive [inhibitor, partial curve, poor fit]",–
CCOC(=O)COc1ccc(C2C(C(=O)OC)=C(C)NC3=C2C(=O)c2ccccc23)cc1Cl (stereo not given),"inconclusive [inhibitor, partial curve, poor fit]",–
COc1cc2c(-c3cccc(Cl)c3)nc3c(c(C)nn3-c3ccccc3)c2cc1OC,inactive,–
NC(=O)c1cccc2[nH]c(-c3ccc([C@H]4CCCN4)cc3F)nc12,inactive,–
COc1ccc(NC(=O)c2sc3nc4c(cc3c2N)CN(Cc2ccccc2)CC4)c(OC)c1,"inconclusive [inhibitor, partial curve, poor fit]",–
CCCC(=O)Nc1nnc(S(=O)(=O)N(C)Cc2ccc(Cl)cc2)s1,"inconclusive [inhibitor, single point]",–
CC(C)(C)c1ccc(/C=C/C(=O)Nc2ccc(S(N)(=O)=O)cc2)cc1,inactive,–
COc1ccc(Cn2c(C(=O)O)c(CNCCc3ccco3)c3ccc(OC)cc32)cc1,inactive,–
C=Cc1ccc(Cn2c(C(=O)O)c(CNCc3ccc(F)cc3)c3ccc(C)cc32)cc1,"inconclusive [inhibitor, single point]",–
CC[C@H]1OC(=O)[C@H](C)[C@@H](O[C@H]2C[C@@](C)(OC)[C@@H](O)[C@H](C)O2)[C@H](C)[C@@H](O[C@@H]2O[C@@H](C)C[C@H](N(C)C)[C@@H]2O)[C@](C)(O)C[C@@H](C)C(=O)[C@H](C)[C@@H](O)[C@]1(C)O,inactive,–
Cc1ccc2c(c1)C(=O)C(=O)N2Cc1ccc(OCCC(C)C)cc1,"inconclusive [inhibitor, single point]",–
COc1cc2c(=O)n(Cc3ccco3)c(=O)n(CC(=O)Nc3ccc(F)cc3)c2cc1OC,"inconclusive [inhibitor, single point]",–
CCN(CC)c1cc(C)c2cc(NC(=O)/C=C/c3ccccc3Cl)ccc2n1,"inconclusive [inhibitor, single point]",–
COc1ccc(CCN2CCC(CNC(=O)c3cnn(-c4ccc(C)cc4)c3C3CCN(C(=O)OC(C)(C)C)CC3)CC2)cc1,"inconclusive [inhibitor, partial curve, poor fit]",–
COc1ccc(-c2nc(SCC(=O)Nc3ccccc3)c(-c3ccc(F)cc3)[nH]2)cc1OC,"inconclusive [inhibitor, single point]",–
COc1ccc(-c2cc(C(F)(F)F)nc(SCC(=O)N3CCCCC3)n2)cc1OC,"inconclusive [inhibitor, partial curve, poor fit]",–
Cc1c(C(=O)OC2CCCCC2)[nH]c2c1C(=O)CC(c1ccccc1Cl)C2 (stereo not given),inactive,–
CCN(c1ccccc1)S(=O)(=O)c1ccc(NC(=O)c2cc(=O)c3ccc(C)c(C)c3o2)cc1,inactive,–
COc1cc(O)ccc1-c1nc2cc(C)ccn2c1Nc1ccccc1C,"inconclusive [inhibitor, partial curve]",–
COc1cc(C(=O)NCC(c2ccc3c(c2)OCO3)N2CCN(C)CC2)cc(OC)c1OC (stereo not given),"inconclusive [inhibitor, single point]",–

Structure (SMILES),Potency,"activity change, negative = inhibition"
O=C(CCS(=O)(=O)c1nc(-c2ccc3c(c2)OCO3)cc(C(F)(F)F)n1)Nc1ccc(F)c(Cl)c1,"inconclusive [inhibitor, partial curve, poor fit]",–
CN(C)c1ccc(C(CNS(=O)(=O)c2ccc(F)cc2)N2CCCC2)cc1 (stereo not given),"inconclusive [inhibitor, single point]",–
COc1ccccc1Nc1c2c(nc3ccc(NC(=O)c4ccc(OC)c(OC)c4)cc13)CCCC2,"inconclusive [inhibitor, single point]",–
Cc1cc(=O)n2c(C(=O)Nc3ccc(Br)cc3)c(C(=O)Nc3ccccc3)sc2n1,"inconclusive [inhibitor, single point]",–
Cc1ccccc1Nc1c(-c2ccc(Br)cc2O)nc2sccn12,"inconclusive [inhibitor, partial curve, poor fit]",–
Cc1ccc(/C=C/c2onc(C)c2S(=O)(=O)N2CCC(C(=O)NCc3ccc(C)o3)CC2)cc1,inactive,–
CC(C)c1ccc(OCC(=O)Nc2c(Cl)ccc3nsnc23)cc1,inactive,–
Cc1cccc(-c2noc(-c3cccnc3NCc3ccco3)n2)c1,"inconclusive [inhibitor, single point]",–
Cc1ccc(-n2ncc(C(=O)NCCCN3CCN(c4cccc(Cl)c4)CC3)c2-n2cccc2)cc1,"inconclusive [inhibitor, single point]",–
COc1ccc(N2CCN(C(=O)c3ccc4c(c3)N(Cc3ccc(F)cc3)C(=O)c3ccccc3S4=O)CC2)cc1 (stereo not given),inactive,–
COc1ccc(-c2cn3c(n2)sc2cc(C(=O)NCCCN4CCCCCC4)ccc23)cc1,"inconclusive [inhibitor, single point]",–
CCOC(=O)C1CCCN(C(=O)c2cccc(NC(=O)c3nsc4ccccc34)c2)C1 (stereo not given),inactive,–
Cc1ccc(OC(=O)c2cc(-c3ccc(Cl)cc3)on2)c(C)c1,inactive,–
Cc1cc(C)c2c(CC(=O)Nc3ccc(F)cc3)coc2c1,"inconclusive [inhibitor, single point]",–
CCCS(=O)(=O)c1nc(S(=O)(=O)c2ccc(C)cc2)c(N(CC)CC)s1,"inconclusive [inhibitor, full curve, poor fit]",–
CCOC(=O)c1c(NC(=O)c2ccc(S(=O)(=O)N3CCC(C)CC3)cc2)sc2c1CCN(C)C2,"inconclusive [inhibitor, partial curve, poor fit]",–
Cc1nn(Cc2ccc(F)cc2)c(C)c1NC(=O)c1cc(CC(C)C)on1,inactive,–
Cc1ccc(-c2nnc(Nc3ccc(O)cc3)c3ccccc23)cc1S(=O)(=O)N1CCN(C)CC1,"inconclusive [inhibitor, single point]",–
CCCn1c2ccccc2c2cnn(CC(=O)NCCc3ccc(OCC)cc3)c(=O)c21,"inconclusive [inhibitor, single point]",–
CCOc1ccc(CNC(=O)C2CCCN(S(=O)(=O)N(CC)c3ccc(OCC)cc3)C2)cc1 (stereo not given),"inconclusive [inhibitor, single point]",–
